Test results: the supplement of paper PMC11417369
± gives the standard deviation of the averaged measurements. Some of the results follow.

tested on: PfAP2-I AP2 domain 3 (GST-tagged); test: gcPBM binding intensity (ln(normalized median fluorescence intensity)); higher = stronger DNA binding
In short: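 Each value is the highest Masliner-normalised natural-log median intensity across replicate spots of either orientation of a probe. The probes were primer-extended double-stranded 36-bp intergenic genomic sequences on an Agilent 4 × 180k array, alongside negative controls, exposed for 1 h to GST-tagged P. falciparum DNA-binding domains expressed in E. coli. Bound protein was picked up with Alexa488 anti-GST antibody and scanned at 488 nm.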

| Sequence | gcPBM binding intensity (ln) |
| --- | --- |
| AGCACACCCACAAAAACACACACAAAGGTGTTCTTA [CACACA_site8355] | 7.7 ± 0.78 |
| TCATTATTATTCCTCACACATATATATATATATATT [CACACA_site4375] | 8.02 ± 0.48 |
| GCATGTATAATGGTAGTGCATATAATAATATAATAA [GTGCAC_site9548] | 10.3 ± 0.33 |
| ATTAACACTGAAAAATGTACATATATAAATATAAGC [XGTACX_site8222] | 7.9 ± 0.68 |
| AATATTAAAAACAAAACACACAAAAAAAAATAAACT [CACACA_site6470] | 7.98 ± 0.62 |
| AACGATATCTGTACTACACACATTATGTCATCCTAT [CACACA_site5374] | 8.27 ± 0.47 |
| TAAAATAATACAAAATGTACAAAATTTACAAAATGT [XGTACX_site3541] | 7.45 ± 0.6 |
| AATATAGAACAATGTTGTACATATAATAATCTTATA [XGTACX_site4671] | 7.67 ± 0.11 |
| ATGTAAATTAAACATGGTACACATTATACAAAATTA [XGTACX_site5675] | 7.75 ± 0.45 |
| TTTATGGGTATGTTTACACACATAAAAAAATATATG [CACACA_site5646] | 7.68 ± 0.42 |
| ATATATATGAAAATATGTACATATATATATATATAA [XGTACX_site7550] | 7.93 ± 0.39 |
| AAAGTTATAATACGTACACACCTTATCTTTTTGGCT [CACACA_site6267] | 8.05 ± 0.51 |
| TTATAAAATAATTAATGTACGTTTATGTGTATCGAA [XGTACX_site6117] | 8.09 ± 0.28 |
| ACTGAAAAAAGAAATACACACATTCTGGATCATATA [CACACA_site3860] | 7.47 ± 0.52 |
| TATTATCTCTTATGAACACACATTTTTATTTTCAAA [CACACA_site3353] | 7.89 ± 0.28 |
| ATATCGTATATGAGTGGTACTAATATGTAAAAAAAA [XGTACX_site7830] | 7.84 ± 0.57 |
| AATGTTAAGGAGGGGAGTACATAAAATTCTCTCTCC [XGTACX_site1990] | 8 ± 0.28 |
| AAAAGCTATAAAAATCGGTAATTTATAACAGGAATT [CACACA_negctrl_site469] | 7.62 ± 0.77 |
| ATTATGTACTATTATACACACGTTTAATTGTAAATT [CACACA_site4278] | 7.99 ± 0.27 |
| ATAATAATAAAGTGAACACACACATATAATATATAT [CACACA_site9378] | 7.72 ± 0.65 |
| ATTATACACGCGCGCACACACAACAAAAAAAAAAAA [CACACA_site7630] | 8.55 ± 0.18 |
| TAAATAAACAAATTAACACACAGAATTTTTTTTTTC [CACACA_site1674] | 7.49 ± 0.57 |
| TGGTAACAGCATAGAAAATGGACAAACGAAATATAA [GTGCAC_negctrl_site537] | 8.12 ± 0.62 |

| Sequence | gcPBM binding intensity (ln) |
| --- | --- |
| TATTTAAAAATAAAATGTACATATTATTATGCATTA [XGTACX_site1303] | 7.9 ± 0.2 |
| TGATTCTAACTTATGGTGCAACATTATGGACACCGT | 10.3 ± 0.35 |
| TTACATATTTATGATTGTACACATTTATAAACAATA [XGTACX_site2190] | 7.82 ± 0.28 |
| TTAATATTGTTATAGCGTACAAATAAACATATTAAA [XGTACX_site8153] | 7.89 ± 0.2 |
| TTCATATAATTATATACATGCATAAATTCTAAGTAA [TGCATGCA_site622] | 8.02 ± 0.38 |
| TTCATATATTATTATGCATGTTCATAAATTATCTAA [TGCATGCA_site896] | 7.88 ± 0.58 |
| ATTTTATAAACAAATGAACACACAAACATATATATA [CACACA_site9036] | 8.02 ± 0.61 |
| TACATACATAAACACACACACACATATATATATATA [CACACA_site8953] | 9.4 ± 0.42 |
| CATTAATGACATGATTGTACATAAGCTTTTTTACAT [XGTACX_site1888] | 7.75 ± 0.61 |
| ACCCATTCAAATTTCGCACACACATACAAAAAAAAA [CACACA_site3094] | 8.79 ± 0.12 |
| ATCAAAAGAAAACACACACACATACATATATATATA [CACACA_site3795] | 9.15 ± 0.16 |
| ATTTGTGTATATTAGAGTACATAAAATTAGAGGAAC [XGTACX_site1654] | 8.43 ± 0.42 |
| ATATTGTAAGTAAAATGTAATAAATATAATAAAATA [CACACA_negctrl_site697] | 7.89 ± 0.45 |
| TTAGTATATACATTTGCACACATTATTTTTTAACAT [CACACA_site2618] | 9.24 ± 0.4 |
| AAAAGGAAAATACTAGCACACAATATATAATAAACA [CACACA_site285] | 7.99 ± 0.49 |
| TCCTTGCATTTTAAAACACACAAAAATTAATTGTTA [CACACA_site7152] | 8.57 ± 0.53 |
| TTTCTAATTATTTCCCTTCAAATATATTAATATCGT [CACACA_negctrl_site429] | 7.63 ± 0.59 |
| TAAAAATGTGGACACACACACATATATATATTTAAT [CACACA_site4941] | 8.015 ± 0.049 |
| ATATATATTATTATATGTACATATAAATATATTAAT [XGTACX_site5270] | 7.8 ± 0.12 |
| GTATATATGTATGTATGTACGTATATAGTTATGTAT [XGTACX_site6769] | 8.11 ± 0.25 |
| ATAAAAAAATTAAATACATGCACATATACACATACA [TGCATGCA_site129] | 8.17 ± 0.38 |
| TTTATTTTTTCCAAGTCACACATGTTTTGATATATT [CACACA_site4946] | 7.87 ± 0.66 |
| TACTGAAATAATTATTTAAACGTTTTTATATGTATT [CACACA_negctrl_site487] | 7.77 ± 0.34 |

| Sequence | gcPBM binding intensity (ln) |
| --- | --- |
| TTTGTAAAACTATATTGTACTTTTATATATCTACAA [XGTACX_site5507] | 7.62 ± 0.54 |
| ACAACTCGGAAGGTTTGTACTTAAAGTATAATTAAG [XGTACX_site737] | 7.67 ± 0.46 |
| TATATACATGCATATACACACATATATTTATTTATA [CACACA_site6327] | 7.92 ± 0.38 |
| AATTGGAAGAAAAAAAAGGAAGGAAAGTTATTACAT [GTGCAC_negctrl_site74] | 7.47 ± 0.77 |
| TCTTGAATAACAAAAAAATGTGCCAACAAAATAAAT [XGTACX_negctrl_site172] | 8.53 ± 0.53 |
| TCATACATGGTGTGTTTGCACTTGACCTATATTCAT | 8.97 ± 0.46 |
| AAAAAAAATGGATGATCACACACTTCATAAAAATTG [CACACA_site2213] | 7.49 ± 0.68 |
| AATATATTTTTTCACTGTACTTTTATTATATATACA [XGTACX_site8312] | 8.18 ± 0.6 |
| ATAATTTTTTGATTTGCATGTAATAAATATATGATA [TGCATGCA_site384] | 7.66 ± 0.54 |
| GATTTTTTTTTGTGGACACACAGAAATAAATTTATA [CACACA_site327] | 8 ± 0.33 |
| ATACAACGATATATATATATACAAATACATATTTAT [CACACA_negctrl_site268] | 7.73 ± 0.55 |
| CACATACAGATATATACACACAAATATATATACTCA [CACACA_site4591] | 7.72 ± 0.42 |
| AGGATACACAGACACACACACATATATATATATATA [CACACA_site907] | 9.23 ± 0.28 |
| TAAATAGATGTTTTATGTACGTATAAATAAAAAAAA [XGTACX_site3412] | 7.79 ± 0.59 |
| ATTAAAAATATAGTCACACATACACCCATATATATT [CACACA_site5394] | 7.67 ± 0.71 |
| TTTTTTTAAAGACATGCATGTAATATTTAAATCATT [TGCATGCA_site495] | 7.53 ± 0.64 |
| TAATAAAGGTGTAATACACACTATAAAAAGGAATAT [CACACA_site4756] | 8.26 ± 0.83 |
| AAAAAACAAAAAATTACACACATATATAAATATATT [CACACA_site2317] | 7.27 ± 0.48 |
| ATGTGTATATATTATTGTACATATATATATATATAT [XGTACX_site4627] | 9.16 ± 0.19 |
| ACATATATATAAATATATATATATATATATATATAT [CACACA_negctrl_site874] | 9.09 ± 0.5 |
| ATGGTAAGTATTTTATGTACATATATATTTATATAA [XGTACX_site4003] | 7.86 ± 0.34 |
| AAAAAAAAAAAAAAAAGTACTAATTGAATATTAAAC [XGTACX_site3383] | 8.49 ± 0.33 |
| TACACCCATAGACACACACACACGCATAAAAAAAAA [CACACA_site8428] | 8.36 ± 0.34 |

| Sequence | gcPBM binding intensity (ln) |
| --- | --- |
| TAATTAAATAAAAAAACACACACATATATACATATA [CACACA_site9141] | 7.68 ± 0.41 |
| TCTATTAATTAATATACACACATTAGATATAAATAT [CACACA_site7241] | 7.72 ± 0.33 |
| ACACATATATAAATATGTACATATATATATATACAT [XGTACX_site1595] | 7.78 ± 0.31 |
| AATATTTGTTAAAGAGGTACACCATTTGGTAGGGAA [XGTACX_site2165] | 8.15 ± 0.48 |
| ATAATATGAAAACACACACACACACTAGAAAAAAAA [CACACA_site5153] | 8 ± 0.42 |
| AAAAAAAAAAATATAACACACAACAAAAAAATATAT [CACACA_site1753] | 7.83 ± 0.73 |
| ATTATTTAAATGGATGCACACATGCATTAAATAAAA [CACACA_site5831] | 8.99 ± 0.82 |
| TATTTTAACATTAGGTGTACATACAAAAATAAAAAT [XGTACX_site8577] | 8.26 ± 0.43 |
| TTTTTCAAATTTAATACACACACAAGTATATATTTA [CACACA_site9307] | 7.77 ± 0.44 |
| TTTTTCTTTTTACATACACACAAAAAAATAAAATAT [CACACA_site581] | 7.88 ± 0.47 |
| TGGTAATTTCTTTGATAAAAATTAATATGTATAAAT [XGTACX_negctrl_site152] | 7.62 ± 0.69 |
| AAATTAATATTATGTGCATGCACAAAGAGGAACGAC [TGCATGCA_site754] | 10.5 ± 0.35 |
| TATATATAAAGGTGTACACATATATATATATCTGTA [CACACA_site5311] | 7.89 ± 0.27 |
| ATTTCATATTATGTAACACACAACAAGATAATCAAA [CACACA_site1960] | 7.79 ± 0.38 |
| TTTTTTAACCTTTTATGTACACAATATTTAACATTT [XGTACX_site1170] | 8.19 ± 0.61 |
| ACTTACACAGTTGATGGTACACTTTTATGATTTTGT [XGTACX_site3205] | 8.07 ± 0.73 |
| ACAAGTTAAAATATTACACACATATAAATATATATA [CACACA_site3132] | 8.08 ± 0.67 |
| TTTTATTTACACAGTGGTACTATTAAAAATTAATGA [XGTACX_site6737] | 7.91 ± 0.51 |
| ATAAGGTTACAACAAACACACAAAGGAATATACTCA [CACACA_site6108] | 7.8 ± 0.82 |
| CAATTACAAAAGAAATGTACTCGTAATAAATAAATA [XGTACX_site1126] | 7.83 ± 0.6 |
